Measurements reported in the supplement of paper PMC3724861.
This is one part of the list.

Tested on: T1, Caupolican (Caup) homeodomain DNA-binding domain
T1 sequence: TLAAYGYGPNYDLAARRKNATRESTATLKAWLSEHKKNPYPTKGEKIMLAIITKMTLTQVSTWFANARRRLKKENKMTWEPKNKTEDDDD
Assay: PBM E-score (8-mer, recovered from the published 9-mer minima) (E-score (dimensionless, -0.5 to 0.5)); Drosophila protein; higher = stronger relative binding preference, active = 0.31 or more
How it was run: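 Caup's homeodomain DNA-binding domain (residues 214-303) was made by in vitro transcription and translation and applied at 100 nM to custom-designed protein binding microarrays. Each value is an enrichment score that gives relative binding preference for a short DNA word, with higher meaning stronger. The 8-mer values were recovered from published 9-mer scores, each of which was the minimum of its two constituent 8-mer scores. A cutoff of 0.31 marks candidate sites.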

Sequence	PBM E-score
GTTCTGTA	inactive: 0.197
ATACGAGC	inactive: 0.136
AGCCGCCG	inactive: -0.232
AACACCTG	≥ 0.237
ATACTGAA	inactive: 0.0974
AAGGAACG	inactive: -0.0568
ATCATACG	inactive: 0.136
GGAACAAA	inactive: 0.194
GAAAATTA	≥ 0.163
GCGACTCA	inactive: -0.0964
TCACGTGA	inactive: 0.0495
CTAACTAC	inactive: 0.102
GTCCCAAA	inactive: -0.0338
CAGGCTCG	inactive: -0.119
ACGGCAAT	inactive: 0.0308
CTTGAGCA	inactive: -0.0687
CATTTGAC	inactive: 0.0733
GTAGGACA	inactive: 0.114
CCGACGGA	inactive: -0.0881
CCAGGCTA	inactive: -0.137
CGACTAGA	inactive: 0.0851
ACTCACCG	inactive: -0.0975
GCTTACTA	inactive: 0.0912
ACAACGGG	inactive: 0.137

Sequence	PBM E-score
AGAATCAC	inactive: 0.0452
CCACGTCG	inactive: -0.0926
AATCCATA	inactive: 0.133
CGCGATAC	inactive: -0.0891
CTCGTGCA	inactive: -0.0522
CGGAATCC	inactive: -0.104
CCTTTCTA	inactive: -0.0969
GACACAAA	inactive: 0.203
CGTAGGAC	inactive: -0.126
AGAATGAG	≥ 0.103
AGGCGAGA	inactive: -0.216
ACCAGGAC	inactive: 0.14
ACAAGAAA	inactive: 0.252
CTGCACGC	inactive: -0.145
AAGCCTAG	inactive: -0.0444
ACAGATCG	inactive: 0.0279
CACGTTAA	inactive: 0.117
AGCTGCGG	inactive: -0.234
GCGCTATA	inactive: 0.0266
ATCTGTTG	inactive: 0.128
TGAGACCA	inactive: -0.0323
CTTAACAA	inactive: 0.228
GAAACCCA	inactive: 0.0044
AGTCCCGG	inactive: -0.223

Sequence	PBM E-score
AGACAATC	inactive: 0.0846
AAAGCTCA	inactive: -0.094
AGGATGAA	inactive: -0.102
ATGGGCAC	inactive: -0.0483
GAGCGGGC	inactive: -0.293
CGTCTGTA	inactive: 0.156
AGTATAAA	inactive: 0.113
ACAATGGG	inactive: 0.0911
GCGCTCAC	inactive: -0.0718
CCCGACAA	inactive: 0.142
TACCGGAA	inactive: 0.0524
CTCGGTAC	inactive: -0.0165
CCCGCGTA	inactive: -0.121
AGTAGAGA	inactive: -0.0115
CTAGGACC	inactive: -0.127
CCAGCGTA	inactive: -0.134
CCCTTGGA	inactive: -0.116
ACTGAAAG	inactive: 0.023
GGTGTCCA	inactive: 0.152
GCGTTTCA	inactive: -0.0787
CGTTACAC	inactive: 0.183
CTACGCAC	inactive: -0.0287
ATTACACC	inactive: 0.259
AACTATCC	inactive: -0.0674

Sequence	PBM E-score
AATTCTGT	inactive: 0.0957
GGTGGGAC	inactive: -0.0958
AACAATTA	≥ 0.265
GCCGAACC	inactive: -0.2
CTACTTAC	inactive: 0.0818
CATCTGAC	inactive: 0.0423
CAATGGCA	inactive: -0.0588
AGCTATGC	inactive: -0.0644
AGCCGGGG	inactive: -0.281
CACATAGC	inactive: -0.00094
CCTACCCG	inactive: -0.0868
CCAGTACC	inactive: -0.0496
GAGTAGTA	inactive: 0.0893
ACTATTTA	inactive: 0.187
AATCCGCG	inactive: -0.0297
CGATCGAA	inactive: -0.0833
ATGGCGCA	inactive: -0.0991
ACACTGAT	inactive: 0.172
GTGTTTGA	inactive: 0.299
CCCAGTTC	≥ -0.0436
GGAGCCGA	inactive: -0.213
AAGTATTG	inactive: 0.145
TGTCCACA	≥ 0.222
TATTTGCA	inactive: 0.087

Sequence	PBM E-score
CAGCACTA	inactive: -0.0158
AGTATTCC	inactive: 0.0265
GCTCCGAA	inactive: -0.0208
AGGAAGCC	inactive: -0.173
CGACCCAC	inactive: -0.123
AATCTTCA	≥ 0.0619
GTGGAGCA	inactive: -0.109
AACAAGTG	active: 0.334
AAGGGTAC	inactive: 0.109
AGCCTTAA	inactive: -0.125
AGGAGATC	inactive: -0.0431
GAACGGAC	inactive: -0.0243
AAGCATTG	inactive: 0.102
AAAAATGC	inactive: 0.0185
GGTTAGCA	inactive: 0.00269
GGCATCCA	inactive: -0.0286
CCGAGGTA	inactive: -0.0104
GAATTCAA	inactive: 0.0935
GAAGCTTC	inactive: -0.218
CTATTCGA	inactive: 0.0836
CTTGCCGC	inactive: -0.156
CAAAGTCA	inactive: -0.0139
AGATGCAC	inactive: -0.00186
GCTAGGGA	inactive: -0.161

Sequence	PBM E-score
CAACTGCC	inactive: -0.0471
GGCCTAAC	inactive: -0.0106
CCATGATC	inactive: 0.0355
ACCTGGCG	inactive: -0.147
TCAGTGAA	inactive: -0.0554
ATCCACCC	inactive: -0.143
CCCTAAGA	inactive: -0.161
ACTGATTG	inactive: 0.109
AGGGAACG	inactive: -0.117
AACCTATT	inactive: 0.0185
CTAAAGAC	inactive: 0.0413
AGATATAA	inactive: 0.072
ATCGTTCA	inactive: 0.115
CTTTTTCA	inactive: -0.0193
CCAAGACC	inactive: -0.065
CGGGGAAG	inactive: -0.18
AGCTATAA	inactive: 0.0708
CAGCGAGA	inactive: -0.0994
CCACGTAC	inactive: 0.0892
ATGAGCAC	inactive: 0.0154
ACGTGAAG	inactive: -0.0437
AAAAATCC	inactive: -0.00815
ATTCTGGC	inactive: -0.119
